Reference: the BET-seq Pho4 binding data (Le et al. 2018)
The other results are listed elsewhere or left out. The energies were worked out here from pooled read counts, against the library average; single values are noisy.

Molecular target: T1, Pho4 (S. cerevisiae) (UniProt P07270)
T1 sequence: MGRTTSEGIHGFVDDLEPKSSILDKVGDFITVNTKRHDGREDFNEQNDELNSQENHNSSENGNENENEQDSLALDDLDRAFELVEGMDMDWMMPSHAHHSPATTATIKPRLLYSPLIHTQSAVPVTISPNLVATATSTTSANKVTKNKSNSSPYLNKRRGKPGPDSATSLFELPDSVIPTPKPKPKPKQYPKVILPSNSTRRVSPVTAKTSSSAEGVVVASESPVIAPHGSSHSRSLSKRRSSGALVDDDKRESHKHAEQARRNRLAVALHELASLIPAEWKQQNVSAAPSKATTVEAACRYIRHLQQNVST
Assay: relative binding free energy (BET-seq); higher = weaker binding
Conditions: reference: library average

Sequence | relative binding free energy [kcal/mol]
TTTAGCACGTGGTGGC | -0.21
TAGCGCACGTGGGTCA | -0.27
GTATGCACGTGTGGAA | 0.05
TTAATCACGTGGTGTA | 0.04
GTTATCACGTGAATTA | 0.35
GTGGCCACGTGACGGG | 0.05
TTATGCACGTGATGGT | -0.01
CGTAGCACGTGGCGGG | -0.23
GGAAGCACGTGTTAGG | -0.04
TGTATCACGTGGTTCG | -0.07
GGGGTCACGTGCGTGA | 0.05
GATTGCACGTGGGATA | -0.18
TTGGTCACGTGGTGCT | -0.06
ATGGTCACGTGATGCT | 0.21
GAGGGCACGTGTGCTA | 0.05
GTCGTCACGTGGTTAG | 0.12
GTAAACACGTGCGTGT | 0.11
CGTGGCACGTGAGCAT | 0.14
GGTGACACGTGATAAG | 0.11
ATAGGCACGTGGAGTG | -0.11
TTGGCCACGTGCGGTT | -0.18
GTGGGCACGTGTAGCG | -0.15
AGTTACACGTGAGGTA | 0.25
GTTACCACGTGGGTAT | -0.15
TTCGGCACGTGAGTCT | 0.16

Sequence | relative binding free energy [kcal/mol]
TGTTGCACGTGTCTGC | -0.01
CAGATCACGTGTTGTG | 0.12
GGTCTCACGTGTTGGC | 0.26
GGGCACACGTGTTGGG | 0.06
CAGAGCACGTGGCGGG | -0.2
CTTATCACGTGGTATT | 0.07
TCAGTCACGTGGCGTA | 0.05
GGGGGCACGTGGTCCG | -0.19
GTGGGCACGTGTTAGG | 0
TTGTACACGTGGAGTT | 0.07
AGCAACACGTGGGGTG | -0.18
AAGATCACGTGCGGGT | 0.04
TGCGTCACGTGGTAGC | 0.1
TTATTCACGTGGGTAA | 0.2
GAGGTCACGTGAAGGC | 0.41
TTAGTCACGTGAGTTT | 0.18
GTGGTCACGTGAAGGA | 0.33
AATGGCACGTGAGTCT | 0.14
CTTTTCACGTGGTACT | 0.29
TAATTCACGTGATATT | 0.38
GTGATCACGTGATTAA | 0.4
TTGGGCACGTGGTTGC | -0.23
GAGATCACGTGGGTTT | 0.07
GTTTTCACGTGGGCGA | 0.14
TTGATCACGTGTAAGG | 0.16

Sequence | relative binding free energy [kcal/mol]
ATGTTCACGTGTAGTG | 0.15
ATGATCACGTGAATGG | 0.32
TCGTGCACGTGCATTG | -0.03
CACGGCACGTGGGGAG | -0.13
TGTGGCACGTGCGTGC | -0.19
GTGCTCACGTGATTTG | 0.2
ACTTACACGTGGTTTG | 0.04
TAGAGCACGTGCGTGT | -0.13
ATACTCACGTGGGAGG | 0.16
GTTTTCACGTGTTGAC | 0.32
TACTGCACGTGGTAGG | -0.19
AGTGCCACGTGAGGTG | 0.17
GCATGCACGTGTGGTT | -0.07
GGTTTCACGTGGTCTC | 0.24
AAATTCACGTGGGTAA | 0.2
TCTTTCACGTGGTCAG | 0.23
GGGTTCACGTGTTAGG | 0.41
GGTGCCACGTGAGTTG | 0.26
GGTTGCACGTGCAAAG | 0.04
TTGAGCACGTGGTTTT | -0.1
GTAGGCACGTGGGAAT | -0.22
GTTCACACGTGGTAGT | 0.1
GTAGGCACGTGGGAGA | -0.1
GTGTTCACGTGTGTCA | 0.17
CTTTTCACGTGCGGGG | 0.35

Sequence | relative binding free energy [kcal/mol]
GAGGACACGTGGGACG | 0.03
CTTGTCACGTGGTCAT | -0.05
AAGGGCACGTGTCGGT | -0.06
TCAGTCACGTGATGGA | 0.3
TTGGACACGTGATTAG | 0.18
GGTCGCACGTGGTGTT | -0.11
TTGGACACGTGAAAGT | 0.28
TGTCACACGTGATTTG | 0.17
ATTCACACGTGTGGGA | 0.14
AGCTTCACGTGTATGG | 0.17
TGCTGCACGTGAGTCG | 0.24
CTGTGCACGTGTTTGG | -0.06
GGGTGCACGTGTTGAG | 0.06
ATTTTCACGTGGATAT | 0.29
TAGTTCACGTGCATAT | 0.2
ATGCGCACGTGGGTTG | -0.28
AGTCACACGTGGTTGT | -0.04
CGGAGCACGTGGAGTG | -0.08
GTTGTCACGTGTTGAC | 0.13
GTTTACACGTGTGGGG | 0.29
TAGTGCACGTGTTGTT | -0.03
GAGGACACGTGGGTGA | -0.06
AAAGGCACGTGTGATT | 0.02
GTATCCACGTGTGATT | 0.19
GGGCACACGTGGGTGC | -0.16

Sequence | relative binding free energy [kcal/mol]
TATGACACGTGTGAGG | 0.05
AGGGTCACGTGGGGCT | 0.09
TTAGGCACGTGTATCG | 0.02
GAGTCCACGTGGGGTG | 0.07
GGGTGCACGTGAGAAA | 0.21
TGGTCCACGTGCGGCG | -0.03
ATTACCACGTGGGTGG | -0.29
TTTAGCACGTGATGGT | 0.13
GTACGCACGTGGGGTG | -0.26
GAGCTCACGTGATGGG | 0.48
CTTTCCACGTGATGGG | 0.24
AAGTACACGTGAAGTT | 0.31
CGGTACACGTGTATTT | 0.06
AGTCGCACGTGAGTTG | 0.27
GGAAGCACGTGTGGTG | -0.11
TTTACCACGTGTGTGA | 0.08
CTGGCCACGTGGGTTT | -0.15
TTCGTCACGTGTTGTG | 0.08
ATAGGCACGTGGTTAA | -0.13
TTGTTCACGTGAGGAA | 0.57
TGTTTCACGTGTGGCC | 0.27
AGGTGCACGTGGTGGA | -0.1
GGTATCACGTGGGTGA | 0.08
CTAATCACGTGGGTGC | 0.09
GGGTTCACGTGGTTTT | 0.36

Sequence | relative binding free energy [kcal/mol]
TTATGCACGTGGGGTC | -0.15
TTGAGCACGTGTTTTA | -0.13
TTTTTCACGTGGCGCT | 0.33
GGATACACGTGTTGAT | 0.19
TATAGCACGTGGGTGG | -0.24
GGTTCCACGTGGGGAG | 0.03
AGGAGCACGTGTTAGG | -0.14
CTGGTCACGTGGGCGA | -0.06
TATTGCACGTGCATTT | -0.05
GTGATCACGTGTGAGT | 0.2
AGGGTCACGTGGTTGG | 0.03
TATAACACGTGTTTGG | 0.02
TGTAGCACGTGTTGAA | 0.03
TTGGCCACGTGTAAGG | 0.13
GTAATCACGTGTTTAG | 0.15
TCGTGCACGTGGGGCG | -0.16
AGTTTCACGTGTTGAC | 0.22
TCGGACACGTGTTGTG | 0.06
GATGTCACGTGGTAGG | 0.14
GAGGACACGTGATTGG | 0.34
CGGCTCACGTGGGGAG | 0.1
